The values below come from ChEMBL document CHEMBL4888484, “Replenishing the malaria drug discovery pipeline: Screening and hit evaluation of the MMV Hit Generation Library 1 (HGL1) against asexual blood stage Plasmodium falciparum ,using a nano luciferase reporter read-out” (2022).

The whole screen tested about 150,000 compounds, of which about 540 (0.36%) showed an effect of 50% or more. The list shows a part of the results.

This experiment deals with Plasmodium falciparum. Nature of the experiment: Primary screen in NF54 nanoGlo assay, in single point, at 2uM, 72h; a lower Z score goes with more inhibition. The note with it: timepoint 72 hour. In kind it is functional, Erythrocyte.
What is called % Inhibition is the drop in the measured response relative to a control, in per cent. In the case of `CN(CCN1CCCCCC1)c1cc([C@H]2CCOC2)nc(N2CC(O)C2)n1`, the “% Inhibition” value is 6% and the Z score is listed as -0.89.
Turning to `CCCN(C)[C@@H](C)C(=O)NCc1ccccc1`, the “% Inhibition” value was -9% and the Z score is given as 1.3.
Take `Cc1ccc(-n2c(C)ccc2C)c(C(=O)Nc2ccc(N3CCNC(=O)C3)nc2)c1`: the “% Inhibition” value was 0% and the Z score is listed as -0.04.
For the compound `COc1ccc(C(=O)N2CCCN(CC(=O)N3CCCC3)CC2)cc1OC(F)F`, the “% Inhibition” value was -4% and the Z score came out at 0.47.
As to `NC(=O)COc1ccc(S(=O)(=O)N[C@H]2CCN(Cc3ccsc3)C2)cc1`, the “% Inhibition” value was -11% and the Z score came to 1.72.
Regarding `COCCn1nnnc1[C@]1(N(C)C)CCN(C(=O)c2sc(C)nc2C)C1`, the “% Inhibition” value is on record as -11% and the Z score is 1.34.
Turning to `CCC(=O)Nc1c(C)nc(N2CCCC2)nc1C`, the “% Inhibition” value is given as -3% and the Z score was determined as 0.45.
On to `O=C(NC1Cc2ccccc2C1)c1ccccc1[C@H]1CCNC1`, for which the “% Inhibition” value was -7% and the Z score was determined as 1.43.
Regarding `CCCOc1ccc(-c2cccc(-c3cc[nH]n3)c2)cc1CO`, the “% Inhibition” value is given as 3% and the Z score is -0.65.
With `Cc1csc(NC(=O)Cn2c(-c3ccncc3)nc3ccccc32)n1`, the “% Inhibition” value is recorded as 4% and the Z score is -0.48.
For the compound `Cc1c(C(=O)NCCN2CCCC2)cnn1-c1nccc(-c2ccccc2F)n1`, the “% Inhibition” value is -8% and the Z score amounted to 1.6.
The like results for `CN(CCC1CCCCC1)C(=O)NCc1ccccn1` were, in that order, -12% and 1.46.
As to `O=C([C@@H]1CCCN1C(=O)Nc1ccccc1)N1CCOc2ncccc2C1`, the “% Inhibition” value is recorded as -4% and the Z score was 0.55.
In the case of `COC[C@@H]1CCCN1CC(=O)Nc1cccc(F)c1C`, the “% Inhibition” value was -4% and the Z score is given as 0.34.
For `CN(C)CCN(Cc1cccnc1)C(=O)c1ccc(N(C)C)nc1`, the “% Inhibition” value is recorded as 3% and the Z score is listed as -0.54.
For the compound `Cc1ccc(C(=O)N(CCN(C)C)Cc2ccccc2)c(C2CCN(S(=O)(=O)c3ccccc3)CC2)n1`, the “% Inhibition” value is -11% and the Z score stood at 1.07.
Take `COc1ccc(CNCc2nnc3n2CCOCC3)c(Cl)c1`: the “% Inhibition” value is given as -3% and the Z score is 0.43.
Regarding `COc1ccccc1NC(=O)[C@H]1CC12CCN(Cc1cccc(OCCO)c1)CC2`, the “% Inhibition” value is reported as -4% and the Z score stood at 0.61.
The like results for `CCn1ncc(C)c1NS(=O)(=O)CCc1cccc(F)c1` were, in that order, 1% and -0.25.
Consider `CCCCN1CCN(C[C@H](O)CO)CC1=O`, for which the “% Inhibition” value is recorded as -17% and the Z score was 1.53.
For the compound `CCc1cccnc1C(=O)Nc1cnn(CC(=O)N2CC(C)OC(C)C2)c1` (centres undefined), the “% Inhibition” value is reported as -1% and the Z score came out at 0.19.
As to `Cc1ccc(C)c(C(=O)c2ccccc2C(=O)N2CC[C@@H](N)C2)c1`, the “% Inhibition” value was -10% and the Z score is on record as 1.13.
Take `CCOC(=O)[C@@H](N)C1(OCC)CCCC1`: the “% Inhibition” value is given as 1% and the Z score was -0.21.
Consider `COc1ccc(C)cc1S(=O)(=O)[C@H]1CS(=O)(=O)C[C@@H]1NC1CCCC1`, for which the “% Inhibition” value came to 10% and the Z score is given as -1.34.
Take `O=C(Nc1cccc(Cl)c1)N1CCc2c(c3ccccc3n2CC2CC2)C1`: the “% Inhibition” value is -8% and the Z score stood at 1.03.
With `CCn1ccnc1CN[C@H]1CCCc2nc(-c3cccnc3)ncc21`, the “% Inhibition” value was determined as 3% and the Z score is -0.33.
The like results for `CN1CN(C(=O)c2ccc3c(c2)C(C)(C)C(=O)N3)CC1=O` were, in that order, -6% and 1.03.
For the compound `COc1ccc(-c2cc(C(F)(F)F)nc(-n3nc(-c4ccc(Cl)cc4)cc3-c3ccc(Cl)cc3)n2)cc1`, the “% Inhibition” value is -12% and the Z score came to 2.27.
Consider `O=C(Nc1ccccc1C(F)(F)F)c1ccccc1N1C(=O)C2CC=CCC2C1=O` (centres undefined), for which the “% Inhibition” value was -15% and the Z score was found to be 2.08.
On to `O=C(NCc1cc2n(n1)CCNC2)Nc1ccccc1C(F)(F)F`, for which the “% Inhibition” value stood at 14% and the Z score was -1.89.
Taken in the same sequence, the figures for `COCc1nc(C(=O)NCC2(c3ccc(C)cc3C)CC2)co1` were -4% and 0.51.
As for `CC(=O)N[C@H]1CN(C(=O)c2ccc3c(c2)OCO3)C[C@@H]1c1ccc(C)cc1`, the “% Inhibition” value is listed as -3% and the Z score was 0.53.
Taken in the same sequence, the figures for `CCc1c(C(=O)N2CC(C)(C)[C@@](C)(O)C2)csc1C` were -18% and 1.58.
As to `CC1(CO)CCCC1NCC(C)(O)C(F)(F)F` (centres undefined), the “% Inhibition” value turned out to be 33% and the Z score is listed as -3.73.
The like results for `O=C(N[C@@H](Cc1c[nH]c2ccccc12)C(=O)Nc1ccncc1)OCc1ccccc1` were, in that order, 5% and -0.53.
Taken in the same sequence, the figures for `COCc1nc(C(=O)Nc2onc(C3CCCCC3)c2C)cs1` were 3% and -0.37.
For `CC1CCN(C(=O)c2ccccc2NC(=O)c2cccs2)CC1`, the “% Inhibition” value was -9% and the Z score was 1.79.
As to `COc1ccc(NC(C)=O)cc1NC1CC(C)N(C2CC2)C1` (centres undefined), the “% Inhibition” value is listed as 2% and the Z score is on record as -0.27.
In the case of `c1ccc(-c2nc(COc3ncnc4scc(-c5ccccc5)c34)cs2)cc1`, the “% Inhibition” value is -7% and the Z score is on record as 1.14.
`Cc1ccc(C(=O)NCc2ccc(Cn3cccn3)cc2)c(=O)[nH]1`: the “% Inhibition” value is reported as -18% and the Z score turned out to be 2.87.
On to `O=C(NC[C@H]1CCN(C/C=C/c2ccccc2)C1)c1cccc(O)c1`, for which the “% Inhibition” value is -4% and the Z score stood at 0.89.
`CC(=O)N1CCC[C@H](N(CCN(C)C(=O)c2ccc(F)cc2F)C2CCOCC2)C1`: the “% Inhibition” value was 1% and the Z score was -0.13.
